Assay results taken from the supplement of paper PMC11369174, “Proteome-scale characterisation of motif-based interactome rewiring by disease mutations” (Molecular Systems Biology, 2024).
The other results are listed elsewhere or left out. Values come from read counts of a selection and are noisy.

B1: AHI1 774-789 mut Q8N157.W787C (peptide)
chain: YVKINDLEHSVHHATI
B2: KRT14 413-428 mut P02533.R417P (peptide)
chain: ATYRPLLEGEDAHLSS
B3: KRT16 413-428 mut P02533.R417P (peptide)
chain: ATYRPLLEGEDAHLSS
B4: BRCA1 179-194 wt (peptide)
chain: YIELGSDSSEDTVNKA
B5: BRCA1 179-194 mut P38398.S186Y (peptide)
chain: YIELGSDYSEDTVNKA
B6: ABCA4 1858-1873 mut P78363.P1869L (peptide)
chain: YARFGEEHSANLFHWD
B7: BTK 598-613 mut Q06187.T602I (peptide)
chain: YERFINSETAEHIAQG
B8: BTK 598-613 mut Q06187.G613D (peptide)
chain: YERFTNSETAEHIAQD
B9: BTK 598-613 mut Q06187.A607D (peptide)
chain: YERFTNSETDEHIAQG
B10: SMC1A 205-220 mut Q14683.R208G (peptide)
chain: EADGYQRLKDEVVRAQ
B11: SLX4 983-998 wt (peptide)
chain: YEQLFSSTQGEISEPS
B12: CHD7 2114-2129 wt (peptide)
chain: YHILNDPELSFLDAHK
B13: CHD7 2114-2129 mut Q9P2D1.N2118S (peptide)
chain: YHILSDPELSFLDAHK
B14: TRPC6 896-911 wt (peptide)
chain: YELLEEKSQNTEDLAE
B15: TRPC6 896-911 mut Q9Y210.E897K (peptide)
chain: YKLLEEKSQNTEDLAE
B16: LMNA 376-391 mut P02545.R377H (peptide)
chain: YHKLLEGEEERLRLSP
B17: MYCN 396-411 mut P04198.R398W (peptide)
chain: DLWSSFLTLRDHVPEL
B18: PQBP1 64-79 mut O60828.P78S (peptide)
chain: YYWNADTDLVSWLSSH
B19: KMT2D 3513-3528 wt (peptide)
chain: WLFHTQQLLQMQLKVL
B20: KCNQ2 268-283 mut O43526.T274M (peptide)
chain: LWWGLIMLTTIGYGDK
B21: MT-ATP6 211-226 wt (peptide)
chain: AYVFTLLVSLYLHDNT
B22: SCN1A 940-955 mut P35498.L942P (peptide)
chain: SFPIVFRVLAGEWIET
B23: BRCA2 411-426 mut P51587.H415R (peptide)
chain: IPLLRISSADQNISEK
B24: SCN9A 940-955 mut P35498.L942P (peptide)
chain: SFPIVFRVLAGEWIET
B25: SCN2A 940-955 mut P35498.L942P (peptide)
chain: SFPIVFRVLAGEWIET
B26: SCN3A 940-955 mut P35498.L942P (peptide)
chain: SFPIVFRVLAGEWIET
B27: SCN8A 940-955 mut P35498.L942P (peptide)
chain: SFPIVFRVLAGEWIET

Target: T1, AP2_Mu__Q96CW1_160_435
T1 chain: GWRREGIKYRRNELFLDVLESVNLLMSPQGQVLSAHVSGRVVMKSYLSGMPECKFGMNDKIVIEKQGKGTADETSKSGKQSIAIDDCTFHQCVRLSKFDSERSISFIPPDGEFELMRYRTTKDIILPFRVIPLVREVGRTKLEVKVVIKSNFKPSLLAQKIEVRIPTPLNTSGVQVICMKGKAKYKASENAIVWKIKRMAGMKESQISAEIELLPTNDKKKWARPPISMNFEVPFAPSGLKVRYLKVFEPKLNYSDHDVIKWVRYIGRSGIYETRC
Experiment: mean normalised NGS count of phage-displayed peptide after selection on bait (% of reads); baits are purified protein domains named by gene / domain / UniProt id / residues; peptides come from disordered regions of human proteins; higher = stronger enrichment / binding
Conditions: replicate selections in which the peptide was seen: 5

Q: For B1, which “mean normalised NGS count” value is on record?
A: The value was 0.0973.

Q: With B2 as the binder, how does the “mean normalised NGS count” value read?
A: Its value is 0.871.

Q: Which “mean normalised NGS count” value does the source give for B3 here?
A: The value was 0.871.

Same assay, conditions: replicate selections in which the peptide was seen: 6

Q: How did the “mean normalised NGS count” value turn out when B4 was run?
A: Its value is 0.625.

Q: B5 was tested. Which “mean normalised NGS count” value did it give?
A: Its value is 5.53.

Q: How did the “mean normalised NGS count” value turn out when B6 was run?
A: Its value is 0.162.

Q: B7 was tested. Which “mean normalised NGS count” value did it give?
A: Its value is 16.1.

Q: With B8 as the binder, how does the “mean normalised NGS count” value read?
A: The value was 15.4.

Q: With B9 as the binder, how does the “mean normalised NGS count” value read?
A: Its value is 13.8.

Q: How did the “mean normalised NGS count” value turn out when B10 was run?
A: Its value is 0.149.

Q: With B11 as the binder, how does the “mean normalised NGS count” value read?
A: The value was 0.102.

Q: Which “mean normalised NGS count” value does the source give for B12 here?
A: The value was 1.01.

Q: For B13, which “mean normalised NGS count” value is on record?
A: Its value is 0.152.

Q: How did the “mean normalised NGS count” value turn out when B14 was run?
A: The value was 0.868.

Q: Which “mean normalised NGS count” value does the source give for B15 here?
A: Its value is 0.028.

Q: Which “mean normalised NGS count” value does the source give for B16 here?
A: Its value is 0.257.

Target: T2, AURKA_Pkinase-merged__O14965_125_391
T2 chain: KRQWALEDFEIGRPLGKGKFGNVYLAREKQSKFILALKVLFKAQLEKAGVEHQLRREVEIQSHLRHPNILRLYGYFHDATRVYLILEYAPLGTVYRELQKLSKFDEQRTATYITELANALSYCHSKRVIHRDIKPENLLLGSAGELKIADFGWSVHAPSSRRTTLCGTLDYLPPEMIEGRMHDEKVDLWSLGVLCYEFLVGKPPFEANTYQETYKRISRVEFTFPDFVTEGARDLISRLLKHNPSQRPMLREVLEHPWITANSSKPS
Experiment: as above
Conditions: replicate selections in which the peptide was seen: 4

Q: B17 was tested. Which “mean normalised NGS count” value did it give?
A: The value was 0.328.

target: MK08_Pkinase__P45983_1_363; experiment: as above; conditions: replicate selections in which the peptide was seen: 3
Sequence (chain, as listed by the source): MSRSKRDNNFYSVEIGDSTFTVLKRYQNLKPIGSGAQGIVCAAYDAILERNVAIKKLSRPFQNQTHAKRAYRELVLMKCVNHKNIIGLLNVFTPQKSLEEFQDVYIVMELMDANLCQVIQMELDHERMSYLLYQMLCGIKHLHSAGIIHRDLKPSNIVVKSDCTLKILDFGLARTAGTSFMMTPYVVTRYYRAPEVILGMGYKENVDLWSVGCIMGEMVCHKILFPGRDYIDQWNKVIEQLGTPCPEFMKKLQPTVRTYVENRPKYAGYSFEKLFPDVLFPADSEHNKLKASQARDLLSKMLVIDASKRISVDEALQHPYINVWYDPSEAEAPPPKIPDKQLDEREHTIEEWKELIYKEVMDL

Q: Which “mean normalised NGS count” value does the source give for B17 here?
A: Its value is 0.0667.

Target: T2, AURKA_Pkinase-merged__O14965_125_391
Experiment: as above
Conditions: replicate selections in which the peptide was seen: 6

Q: With B18 as the binder, how does the “mean normalised NGS count” value read?
A: Its value is 4.09.

Target: T3, CSK21_Pkinase__P68400_1_335
T3 chain: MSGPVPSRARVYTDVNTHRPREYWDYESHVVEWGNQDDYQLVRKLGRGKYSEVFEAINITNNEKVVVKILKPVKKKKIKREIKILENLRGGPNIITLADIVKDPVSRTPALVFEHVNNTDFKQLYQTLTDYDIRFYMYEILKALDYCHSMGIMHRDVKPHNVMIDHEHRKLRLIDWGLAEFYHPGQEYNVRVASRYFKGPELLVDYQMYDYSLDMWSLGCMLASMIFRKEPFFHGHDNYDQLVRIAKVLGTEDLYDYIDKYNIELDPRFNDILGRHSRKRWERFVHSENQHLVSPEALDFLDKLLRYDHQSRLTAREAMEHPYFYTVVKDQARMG
Experiment: as above
Conditions: replicate selections in which the peptide was seen: 3

Q: How did the “mean normalised NGS count” value turn out when B18 was run?
A: Its value is 11.2.

target: MK08_Pkinase__P45983_1_363; experiment: as above; conditions: replicate selections in which the peptide was seen: 6

Q: B18 was tested. Which “mean normalised NGS count” value did it give?
A: Its value is 38.2.

Target: T4, PDZK1_PDZ_2_Q5T2W1_132_224
T4 chain: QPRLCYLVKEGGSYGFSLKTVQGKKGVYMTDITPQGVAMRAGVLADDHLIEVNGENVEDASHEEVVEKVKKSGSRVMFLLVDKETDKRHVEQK
Experiment: as above
Conditions: replicate selections in which the peptide was seen: 6

Q: Which “mean normalised NGS count” value does the source give for B18 here?
A: Its value is 49.1.

Target: T5, SHC_PH__P29353_149_317
T5 chain: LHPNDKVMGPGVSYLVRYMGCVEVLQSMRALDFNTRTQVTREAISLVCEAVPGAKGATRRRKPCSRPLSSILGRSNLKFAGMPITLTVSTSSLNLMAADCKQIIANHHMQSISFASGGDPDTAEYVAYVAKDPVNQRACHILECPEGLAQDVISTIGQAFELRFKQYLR
Experiment: as above
Conditions: replicate selections in which the peptide was seen: 6

Q: B18 was tested. Which “mean normalised NGS count” value did it give?
A: The value was 37.9.

target: BRD4_NET__O60885_601_683; experiment: as above; conditions: replicate selections in which the peptide was seen: 2
Sequence (chain, as listed by the source): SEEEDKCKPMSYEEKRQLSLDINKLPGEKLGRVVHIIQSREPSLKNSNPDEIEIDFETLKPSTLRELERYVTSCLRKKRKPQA

Q: How did the “mean normalised NGS count” value turn out when B19 was run?
A: The value was 0.118.

Q: How did the “mean normalised NGS count” value turn out when B20 was run?
A: Its value is 3.45.

Q: Which “mean normalised NGS count” value does the source give for B21 here?
A: Its value is 0.212.

Q: How did the “mean normalised NGS count” value turn out when B22 was run?
A: The value was 0.0105.

Q: For B23, which “mean normalised NGS count” value is on record?
A: The value was 0.012.

Q: With B24 as the binder, how does the “mean normalised NGS count” value read?
A: The value was 0.0105.

Q: How did the “mean normalised NGS count” value turn out when B25 was run?
A: Its value is 0.0105.

Q: How did the “mean normalised NGS count” value turn out when B26 was run?
A: Its value is 0.0105.

Q: B27 was tested. Which “mean normalised NGS count” value did it give?
A: The value was 0.0105.
